Structures are written as SMILES. This is one part of the list. Further columns of the screen follow, without active or inactive calls.

Holding throughout (test): Primary Screen for Target Class Profiling of Small Molecule Inhibitors of Methyltransferases
Test [1] has as its target Glycine N-methyltransferase (Homo sapiens) (UniProt Q14749). As to conditions: purified enzyme, MTase-Glo SAH luminescence; measured here: GNMT inhibition; at 40 µM; stronger effect = lower value. An excerpt: (§1) PI: Matthew D. Hall Ph.D. and Quinlin M. Hanson Ph.D.
(§2) National Center for Advancing Translational Sciences (NCATS)
(§3) National Institute of Health (NIH), Rockville, MD
(§4) Target class profiling (TCP) is a chemical biology approach amenable to investigating understudied biological targets. TCP is achieved by developing a generalizable assay platform and applying it to screen a curated set of compound libraries against representative members of a target class. Small molecule methyltransferases (SMMTase) are a subclass of methyltransferase that act on metabolites to modulate signaling pathways, metabolize xenobiotics, or balance the available methyl pool. We screened four curated libraries totaling 27,574 unique compounds against the SMMTases nicotinamide N-methyltransferase (NNMT), phenylethanolamine N-methyltransferase (PNMT), histamine N-methyltransferase (HNMT), glycine N-methyltransferase (GNMT), catechol O-methyltransferase (COMT), and guanidinoacetate N-methyltransferase (GAMT). The data generated by this TCP can be leveraged for informed tool molecule development. For example, in the associated publication we identified a chemotype of HNMT-selective inhibitors. Additionally, we identified a putative SMMTase-selective inhibitor with potential as a tool molecule for studying broader methyltransferase biology.
(§5) High-through put screening assays were developed at the National Center for Advancing Translational Science (NCATS) for the enzymes NNMT, PNMT, HNMT, GNMT, COMT, and GAMT. Enzymatic activity was measured as a function of SAM cofactor conversion using the MTase Glo kit (Promega) for all enzymes. All assays were performed in 1536-well format with substrates and SAM concentrations at KM values. Enzyme concentration and assay timing were optimized for 10-20% SAM conversion. Initial screening of 27,574 compounds was done as single-point assays using the highest compound concentration (40 uM). […] These compounds were replated in 11-point dose response and assayed against NNMT, PNMT, HNMT, GNMT, COMT, GAMT, and a counter-assay. The IC50 and efficacy (maximal response) values were determined for each dose-response curve. These values are also accounted for in the area under the curve (AUC) values.
(§6) PROTOCOL TABLE (as described by Inglese J, Shamu CE and Guy RK. 2007)
(§7) SEQUENCE No. (e.g., 1, 2, 3, etc.); […] (e.g., Cells, Incubation, Reagent, etc.); VALUE; DESCRIPTION.
(§8) 1; Reagent; 2 uL; SMMTase Enzyme (2x) in reaction buffer, columns 1- 48.
(§9) 2; Reagent; 1 uL; SAM (4x) in reaction buffer, columns 1-48.
(§10) 3; Controls; 23 nL; DMSO in column 4; sinefungin in DMSO (0 uM - 40 uM) in 7-point 1:2 dilution series (n = 2) in column 2.
(§11) 4; Compounds; 23 nL; Columns 5-48.
(§12) 5; Reagent; 1 uL; Substrate (4x) in reaction buffer, columns 2-48.
(§13) 6; Time; 20-30 min; Incubation.
(§14) 7; Reagent; 1 uL; MTase-Glo reagent (5X), columns 1-48.
(§15) 8; Time; 30 min; Incubation.
(§16) 9; Reagent; 5 uL; MTase-Glo Detection reagent, columns 1-48.
(§17) 10; Time; 30 min; Incubation, luminescence evolution.
(§18) 11; Detection; Luminescence; ViewLux uHTS Microplate Imager (PerkinElmer).
(§19) NOTES (numbers refer to Sequence numbers above)
(§20) 1, 2, 5. White Medium Binding Greiner 1536-well plates (Cat #789175-F, Greiner Bio-One, Monroe, NC); Reaction buffer: 50 mM Tris, pH 8.0, 3 mM MgCl2, 1 mM EDTA, 50 mM NaCl, 1 mM DTT, and 0.1 mg/mL BSA. Evaporation was prevented by covering assay plates with metal lids containing holes to allow gas diffusion.
(§21) 1. Six SMMTase were profiled: HNMT, GNMT, PNMT, COMT, NNMT, GAMT
(§22) 5. The corresponding substrate was used for each enzyme: HNMT - 5.3 uM Histamine; GNMT - >500 uM Glycine; PNMT - 16.2 uM Norephinephrine; COMT - 13.7 uM Norephinephrine; NNMT - 3.8 uM Nicotinamide; GAMT - 2.5 uM Guanidinoacetate.6, 8, 10. Room temperature
(§23) 6. Final reaction conditions: 10 nM COMT, 5 uM SAM, 15 uM norepinephrine, 50 mM Tris, pH 8.0, 3 mM MgCl2, 1 mM EDTA, 50 mM NaCl, 1 mM DTT, and 0.1 mg/mL BSA; refer to tables 2 and S1 for specific timing.
8. […]

In test [2] the target is Guanidinoacetate N-methyltransferase (Homo sapiens) (UniProt Q14353). The following applies: purified enzyme, MTase-Glo SAH luminescence; measured here: GAMT inhibition; at 40 µM; stronger effect = lower value.
Text: as §1, §2, §3, §4, §5, §6, §7, §8, §9, §10, §11, §12, §13, §14, §15, §16, §17, §18, §19, §20, §21, §22, §23
8. […]

The target of test [3] is Histamine N-methyltransferase (Homo sapiens) (UniProt P50135). As to conditions: purified enzyme, MTase-Glo SAH luminescence; measured here: HNMT inhibition; at 40 µM; stronger effect = lower value.
Text: as §1, §2, §3, §4, §5, §6, §7, §8, §9, §10, §11, §12, §13, §14, §15, §16, §17, §18, §19, §20, §21, §22, §23
8. […]

The target in test [4] is Nicotinamide N-methyltransferase (Homo sapiens) (UniProt P40261). As to conditions: purified enzyme, MTase-Glo SAH luminescence; measured here: NNMT inhibition; at 40 µM; stronger effect = lower value.
Text: as §1, §2, §3, §4, §5, §6, §7, §8, §9, §10, §11, §12, §13, §14, §15, §16, §17, §18, §19, §20, §21, §22, §23
8. […]

Test [5] deals with Phenylethanolamine N-methyltransferase (Homo sapiens) (UniProt P11086). The following applies: purified enzyme, MTase-Glo SAH luminescence; measured here: PNMT inhibition; at 40 µM; stronger effect = lower value.
Text: as §1, §2, §3, §4, §5, §6, §7, §8, §9, §10, §11, §12, §13, §14, §15, §16, §17, §18, §19, §20, §21, §22, §23
8. […]
% is scaled to controls: 0 for no effect and ±100 for the full control effect.

On to `CCC1CC2CN3CCc4c([nH]c5ccccc45)C(C(=O)OC)(C2)C13` (stereo not given), for which the activity change, negative = inhibition is -5.07% in test [1]; 3.97% in test [2]; 0.485% in test [3]; -11.5% in test [4]; 3.55% in test [5].

Consider `CCC1(C2=NCCN2)Cc2ccccc2O1` (stereo not given), for which the activity change, negative = inhibition was 0.002% in test [1]; 2.61% in test [2]; -4.61% in test [3]; -11.5% in test [4]; -10.4% in test [5].

In the case of `CCOC(=O)c1ncn2c1[C@@H]1CCCN1C(=O)c1cc(OC)ccc1-2`, the activity change, negative = inhibition in test [1] was -7.28%; in test [2], 4.72%; in test [3], -1.45%; in test [4], -4.59%; in test [5], 5.99%.

As for `CCOc1ccccc1NC(=O)N1Cc2ccccc2-n2cccc2C1c1cc(F)cc(F)c1` (stereo not given), the activity change, negative = inhibition in test [1] came out at 6.19%; in test [2], 0%; in test [3], 7.83%; in test [4] it was 4.96%; in test [5] it was 6.09%.

For the molecule `NC(N)=Nc1ccc2[nH]c3c(c2c1)C[C@@]1(O)[C@H]2Cc4ccc(O)c5c4[C@@]1(CCN2CC1CC1)[C@H]3O5`, the activity change, negative = inhibition was -29.1% in test [1]; 2.9% in test [2]; -8.59% in test [3]; -7.19% in test [4]; 5.68% in test [5].

For `Cc1ccc(C2c3cccn3-c3ccccc3CN2C(=O)Nc2ccc(Br)c(C)c2)cc1` (stereo not given), the activity change, negative = inhibition in test [1] is 13.2%; in test [2], 0%; in test [3], 10.1%; in test [4], 2.6%; in test [5], 8.54%.

For `COc1ccc(NC(=O)N2Cc3ccccc3-n3cccc3C2c2ccc(SC)cc2)cc1OC` (stereo not given), the activity change, negative = inhibition in test [1] is -4.54%; in test [2], 1.12%; in test [3], -1.49%; in test [4], -2.77%; in test [5], 2.47%.

With `CC(C)c1ccc(C2c3cccn3-c3ccccc3CN2C(=O)Nc2ccc(F)cc2F)cc1` (stereo not given), the activity change, negative = inhibition in test [1] is -3.6%; in test [2] it was 4.34%; in test [3], 3.65%; in test [4], -3.59%; in test [5], -1.43%.

With `CC(C)NC(=O)N1Cc2ccccc2-n2cccc2C1c1cccs1` (stereo not given), the activity change, negative = inhibition in test [1] is 6.85%; in test [2], 0%; in test [3], 8.59%; in test [4] it was 1.71%; in test [5] it was 4.86%.

For `CCOC(=O)C1CCC(CNC(=O)N2Cc3ccccc3-n3cccc3C2c2ccc(F)cc2)CC1` (stereo not given), the activity change, negative = inhibition in test [1] was 0.183%; in test [2] it was 2.3%; in test [3] it was -3.8%; in test [4], -11.3%; in test [5] it was 1.6%.

For the molecule `CN1C(=O)[C@@H](Cc2c[nH]c3ccccc23)N=C(c2ccccc2F)c2ccccc21`, the activity change, negative = inhibition is -2.92% in test [1]; -5.46% in test [2]; 7.92% in test [3]; -29.2% in test [4]; -3.43% in test [5].

With `COc1ccc(OC)c(NC(=O)N2Cc3ccccc3-n3cccc3C2c2cccc(C)c2)c1` (stereo not given), the activity change, negative = inhibition in test [1] is 1.42%; in test [2], -1.2%; in test [3] it was -3.04%; in test [4], -3.26%; in test [5] it was -0.447%.

Turning to `CN1CCN([C@H]2[C@@H]3OC[C@@H](O3)[C@@H](NCc3ccccn3)[C@@H]2O)CC1`, the activity change, negative = inhibition in test [1] was -0.403%; in test [2], -1.32%; in test [3], 1.51%; in test [4], 1.32%; in test [5] it was -1.24%.

For `O=S(=O)(c1ccccc1F)N1CCOc2c(N3CCNCC3)cccc21`, the activity change, negative = inhibition is -3.33% in test [1]; 3.85% in test [2]; 6.25% in test [3]; -23.2% in test [4]; 2.92% in test [5].

Consider `CCCn1c(=O)c2[nH]c(C3CCCC3)nc2n(CCCOC(=O)c2ccc(S(=O)(=O)F)cc2)c1=O`, for which the activity change, negative = inhibition in test [1] was 5.96%; in test [2], 16.3%; in test [3], 9.54%; in test [4], -8.06%; in test [5] it was 7.24%.

For `COc1ccc(C2c3cccn3-c3ccccc3CN2C(=O)Nc2ccccc2F)cc1OC` (stereo not given), the activity change, negative = inhibition in test [1] was 11.2%; in test [2], 0.08%; in test [3] it was 6.12%; in test [4] it was -0.66%; in test [5], 6.38%.

Turning to `CC(=O)O[C@@H]1[C@@H](O)[C@H]2O[C@@H]3C=C(C)[C@@H](O)C[C@]3(CO)[C@]1(C)[C@]21CO1`, the activity change, negative = inhibition is 0% in test [1]; 6.48% in test [2]; 9.34% in test [3]; -5.12% in test [4]; 7.66% in test [5].

For `COc1ccc(C)cc1NC(=O)N1Cc2ccccc2-n2cccc2C1c1ccc(C)cc1` (stereo not given), the activity change, negative = inhibition in test [1] worked out at 8.46%; in test [2], 0%; in test [3], 6.06%; in test [4], 9.14%; in test [5], 6.23%.

As for `CCCN(CCC)CCc1ccc(OC)c(OCCc2ccccc2)c1`, the activity change, negative = inhibition in test [1] was 4.16%; in test [2] it was 12.2%; in test [3] it was -20.3%; in test [4] it was -7.07%; in test [5], 0.844%.

The values above are taken from PubChem BioAssay AID1745853 (National Center for Advancing Translational Sciences (NCATS), 2022).
